For 14 compounds, cytotoxicity call and growth inhibition call results are on record in the antibiotic and cytotoxicity screens of Wong et al. (2023).

Test [1] deals with HSkMC (human skeletal muscle cells). In words: cytotoxicity call (relative viability < 0.9). The following applies: 10 µM.
The subject of test [2] is HepG2. The test can be described thus: cytotoxicity call (relative viability < 0.9). Particulars: 10 µM.
In test [3] the test system is S. aureus RN4220. The test can be described thus: growth inhibition call (relative growth <= 0.2). The following applies: 50 µM.

Some of the results follow.

Consider `Cc1noc(C)c1NC(=O)Nc1cccc2c1O[C@H](CN(C)Cc1ccc(C(=O)Nc3ccccc3N)cc1)[C@H](C)CN([C@@H](C)CO)C2=O`, for which the cytotoxicity call in test [1] and in test [2] was “inactive” each time. Further, in test [3], the growth inhibition call is “inactive”.

As for `COc1ccc(CNC(=O)C[C@H]2CC[C@H]3[C@H](COc4ccc(NC(=O)C(C)C)cc4C(=O)N3C)O2)cc1`, the cytotoxicity call in test [1] and in test [2] was “inactive” each time. In addition, the growth inhibition call in test [3] is “inactive”.

Consider `C[C@@H]1CCCCO[C@H](CN(C)S(=O)(=O)c2ccccc2)[C@H](C)CN([C@@H](C)CO)C(=O)c2cc(NC(=O)Nc3ccc(C(F)(F)F)cc3)ccc2O1`, for which the cytotoxicity call in test [1] was “inactive”. Also, the cytotoxicity call in test [2] is “active”. For the same compound, the growth inhibition call in test [3] is “inactive”.

Take `Cc1noc(C)c1NC(=O)N(C)C[C@H]1OCCCC[C@H](C)Oc2ccc(NC(=O)CCC(F)(F)F)cc2C(=O)N([C@H](C)CO)C[C@@H]1C`: the cytotoxicity call in test [1] and in test [2] was “inactive” throughout. The growth inhibition call in test [3] is “inactive”.

On to `C[C@@H]1CCCCO[C@@H](CN(C)Cc2ccc(C(F)(F)F)cc2)[C@H](C)CN([C@@H](C)CO)C(=O)c2cc(NC(=O)C3CCCCC3)ccc2O1`, for which the cytotoxicity call in test [1] and in test [2] was “inactive” in each case. In addition, in test [3], the growth inhibition call was “inactive”.

In the case of `C[C@@H]1CCCCO[C@@H](CN(C)C)[C@@H](C)CN([C@H](C)CO)C(=O)c2cc(NC(=O)Nc3cccc4ccccc34)ccc2O1`, the cytotoxicity call in test [1] and in test [2] was “inactive” throughout. Also, the growth inhibition call in test [3] is “inactive”.

Consider `Cc1noc(C)c1S(=O)(=O)Nc1ccc2c(c1)CC(=O)N([C@@H](C)CO)C[C@@H](C)[C@@H](CN(C)Cc1ccncc1)O2`, for which the cytotoxicity call in test [1] and in test [2] was “inactive” each time. Moreover, the growth inhibition call in test [3] was “inactive”.

Turning to `C[C@@H]1CCCCO[C@H](CN(C)Cc2ccncc2)[C@H](C)CN([C@@H](C)CO)C(=O)c2cc(NC(=O)Nc3ccc4c(c3)OCO4)ccc2O1`, the cytotoxicity call in test [1] and in test [2] was “inactive” each time. Moreover, in test [3], the growth inhibition call is “inactive”.

For `COc1ccc(NC(=O)Nc2cccc3c2O[C@@H](CN(C)C(=O)Nc2ccc(C(F)(F)F)cc2)[C@@H](C)CN([C@H](C)CO)C3=O)cc1`, the cytotoxicity call in test [1] and in test [2] was “inactive” throughout. In addition, in test [3], the growth inhibition call is “inactive”.

Regarding `NCc1ccncc1`, the cytotoxicity call in test [1] and in test [2] was “inactive” throughout. Further, the growth inhibition call in test [3] was “inactive”.

Take `C[C@@H]1CN([C@H](C)CO)C(=O)c2cc(NC(=O)Nc3ccc(C(F)(F)F)cc3)ccc2O[C@@H]1CN(C)Cc1ccc(C(=O)Nc2ccccc2N)cc1`: the cytotoxicity call in test [1] is “inactive”. For the same compound, the cytotoxicity call in test [2] was “active”. Further, in test [3], the growth inhibition call is “inactive”.

`C[C@@H]1CN([C@H](C)CO)C(=O)c2cc(NC(=O)Nc3cccc4ccccc34)ccc2O[C@@H]1CN(C)C(=O)Nc1cccc2ccccc12`: the cytotoxicity call in test [1] is “active”. Moreover, the cytotoxicity call in test [2] was “inactive”. The growth inhibition call in test [3] was “inactive”.

Take `C[C@H]1CN([C@@H](C)CO)C(=O)CCCn2cc(nn2)CO[C@H]1CN(C)C(=O)Nc1cccc2ccccc12`: the cytotoxicity call in test [1] and in test [2] was “inactive” in each case. In addition, the growth inhibition call in test [3] is “inactive”.

Take `C[C@@H]1CN([C@H](C)CO)C(=O)c2cccc(NS(C)(=O)=O)c2O[C@@H]1CN(C)S(=O)(=O)c1ccccc1`: the cytotoxicity call in test [1] and in test [2] was “inactive” in each case. Further, the growth inhibition call in test [3] was “inactive”.
